In EP2495257A2:

B1: hIL-1a/bDVD2-Ig (bispecific antibody, human IgG1, kappa)
heavy: QVQLQQSGAELVRPGSSVKISCKASGYAFSSYWMNWVKQRPGQGLEWIGQIYPGDGDTNYNGKFKGKATLTADKSSSTSYMQLSGLTSEDSAMYFCVRFPTGNDYYAMDYWGQGTSVTVSSAKTTPPQIQLVQSGPELKKPGETVKISCKASGYTFRNYGMNWVKQAPGKDLKRMAWINTYTGESTYADDFKGRFAFSLETSASTAYLQINNLKNEDTATYFCARGIYYYGSSYAMDYWGQGTSVTVSS[no letters for human IgG1 constant region]
light: NIVLTQSPASLAVSLGQRATISCRASESVDSYGNSYMHWYQQKPGQPPKLLIYLASNLESGVPARFSGSGSRTDFTLTIDPVEADDAATYYCQQNNEDPFTFGSGTKLEIKRADAAPNIQMTQTTSSLSASLGDRVTISCRASQDISNCLNWYQQKPDGTVKLLIYYTSRLHSGVPSRFSGSGSGTDYSLTISNLEQEDIATYFCQQGKTLPYAFGGGTKLEINRTVAAPSVFIFPPSDEQLKSGTASVVCLLNNFYPREAKVQWKVDNALQSGNSQESVTEQDSKDSTYSLSSTLTLSKADYEKHKVYACEVTHQGLSSPVTKSFNRGEC
B2: hIL-1a/bDVD1-Ig (bispecific antibody, human IgG1, kappa)
heavy: QVQLQQSGAELVRPGSSVKISCKASGYAFSSYWMNWVKQRPGQGLEWIGQIYPGDGDTNYNGKFKGKATLTADKSSSTSYMQLSGLTSEDSAMYFCVRFPTGNDYYAMDYWGQGTSVTVSSQIQLVQSGPELKKPGETVKISCKASGYTFRNYGMNWVKQAPGKDLKRMAWINTYTGESTYADDFKGRFAFSLETSASTAYLQINNLKNEDTATYFCARGIYYYGSSYAMDYWGQGTSVTVSS[no letters for human IgG1 constant region]
light: NIVLTQSPASLAVSLGQRATISCRASESVDSYGNSYMHWYQQKPGQPPKLLIYLASNLESGVPARFSGSGSRTDFTLTIDPVEADDAATYYCQQNNEDPFTFGSGTKLEIKRNIQMTQTTSSLSASLGDRVTISCRASQDISNCLNWYQQKPDGTVKLLIYYTSRLHSGVPSRFSGSGSGTDYSLTISNLEQEDIATYFCQQGKTLPYAFGGGTKLEINRTVAAPSVFIFPPSDEQLKSGTASVVCLLNNFYPREAKVQWKVDNALQSGNSQESVTEQDSKDSTYSLSSTLTLSKADYEKHKVYACEVTHQGLSSPVTKSFNRGEC

Biological target: equal amounts of hIL-1α and hIL-1β added together
Experiment: cell-based or functional assay

| Binder | dual-inhibition activity, IL-8 synthesis by MRC-5 cells with both hIL-1α and hIL-1β present |
| --- | --- |
| B1 | 1.2 nM |
| B2 | 2.2 nM |
